Experimental data taken from paper PMC4336329 (PLoS ONE, 2015).
Screen size: about 310,000 compounds; about 14,000 (4.5%) showed an effect of 50% or more. Effects have a minus sign here. This is one part of the list.

Molecular target: human ether-à-go-go-related gene (hERG) potassium channel (human, UniProt Q12809)
Assay: primary screen, population patch clamp on CHO cells stably expressing hERG
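Note: peak tail current of the secondary pulse compared with the same well before compound.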

Chain of human ether-à-go-go-related gene (hERG) potassium channel (Q12809 whole entry, looked up): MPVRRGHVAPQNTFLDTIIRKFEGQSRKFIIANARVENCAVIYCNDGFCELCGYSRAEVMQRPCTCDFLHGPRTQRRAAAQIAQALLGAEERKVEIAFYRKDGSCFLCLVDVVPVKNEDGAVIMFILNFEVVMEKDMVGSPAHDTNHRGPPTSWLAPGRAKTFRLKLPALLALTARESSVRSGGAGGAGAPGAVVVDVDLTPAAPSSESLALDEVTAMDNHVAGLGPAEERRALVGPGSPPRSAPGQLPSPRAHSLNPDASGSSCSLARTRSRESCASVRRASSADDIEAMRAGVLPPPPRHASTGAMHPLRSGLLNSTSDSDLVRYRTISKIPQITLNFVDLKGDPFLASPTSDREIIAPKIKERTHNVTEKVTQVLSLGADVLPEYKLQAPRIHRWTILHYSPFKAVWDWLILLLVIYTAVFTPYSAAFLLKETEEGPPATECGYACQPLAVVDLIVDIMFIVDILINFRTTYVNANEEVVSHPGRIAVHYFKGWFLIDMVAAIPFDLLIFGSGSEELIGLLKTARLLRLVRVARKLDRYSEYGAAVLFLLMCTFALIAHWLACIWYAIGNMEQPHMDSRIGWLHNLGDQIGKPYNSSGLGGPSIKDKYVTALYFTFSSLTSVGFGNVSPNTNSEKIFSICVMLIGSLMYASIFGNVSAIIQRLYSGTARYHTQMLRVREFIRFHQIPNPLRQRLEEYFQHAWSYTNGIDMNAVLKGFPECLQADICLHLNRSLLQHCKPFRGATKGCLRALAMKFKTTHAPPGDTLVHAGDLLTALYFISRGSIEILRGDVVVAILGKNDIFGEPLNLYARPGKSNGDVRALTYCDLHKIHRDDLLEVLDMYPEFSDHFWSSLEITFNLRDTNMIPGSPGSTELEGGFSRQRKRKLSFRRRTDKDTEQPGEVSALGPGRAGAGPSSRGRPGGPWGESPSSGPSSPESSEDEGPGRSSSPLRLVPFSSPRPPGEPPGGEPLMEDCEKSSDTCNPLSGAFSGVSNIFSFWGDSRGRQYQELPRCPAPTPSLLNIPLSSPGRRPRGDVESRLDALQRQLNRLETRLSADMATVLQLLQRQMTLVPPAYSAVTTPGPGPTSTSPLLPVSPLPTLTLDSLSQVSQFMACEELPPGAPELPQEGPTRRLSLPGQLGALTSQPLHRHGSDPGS

| Structure (SMILES) | hERG current change (%, negative = inhibition) at 10uM |
| --- | --- |
| Cc1nc(C(C)NC(=O)CCc2nnc(-c3ccsc3)o2)cs1 (stereo not drawn) | 15.8% |
| Nc1ccc2c(c1)COC2=O | 4.55% |
| CC(=O)c1cccc(NC(=O)C2CC(=O)N(c3ccc4c(c3)OCCO4)C2)c1 (stereo not drawn) | 4.07% |
| CCc1ccc(-c2nc(CS(=O)CC(=O)NC3CCCCCC3)c(C)o2)cc1 (stereo not drawn) | -7.44% |
| FC(F)(F)c1ccc(-c2nnc(-c3ccccn3)c(-c3ccccn3)n2)nc1 | 4.84% |
| Cc1ccc(S(=O)(=O)/C(=C\N(C)C)c2cnc(Cl)s2)cc1 | 5.09% |
| O=C1NC(=O)/C(=C\c2ccccc2OCc2cccc([N+](=O)[O-])c2)N1 | -5.66% |
| O=C1ON=C(c2ccc(Cl)c([N+](=O)[O-])c2)/C1=C/c1cccc([N+](=O)[O-])c1O | 21.5% |
| O=C(/C=C/c1ccco1)N(Cc1ccc(Cl)cc1)C1CCS(=O)(=O)C1 (stereo not drawn) | -45.1% |
| Cc1ccc(S(=O)(=O)Nc2ccc(Cl)cc2C(=O)c2ccccc2)cc1 | 14.4% |
| CC(C)(Oc1ccc(Cl)cc1)C(=O)NC1=NN(c2ccccc2)C(=O)C1 | -7.72% |
| COc1ccccc1OCc1cc(C(=O)N2CCCC(OCc3cccnc3)C2)no1 (stereo not drawn) | -22% |
| COCCN(C(=O)COC(=O)/C=C/c1ccc(OC)c(OC)c1)c1c(N)n(Cc2ccccc2)c(=O)[nH]c1=O | 6.14% |
| CCOC(=O)C1CCN(CC(O)COCc2ccc(Cl)cc2)CC1.Cl (stereo not drawn) | -79.2% |
| O=C(N/C(=C/c1ccc(F)cc1)C(=O)N1CCCCC1)c1ccco1 | -18.7% |
| CC(C)(C)C(=O)Nc1ccc(S(=O)(=O)N2CCCC2)cc1 | 4.25% |
| CC(C)OC(=O)/C(=C\c1cccc2ccccc12)NC(=O)c1ccccc1 | -6.39% |
| COc1ccc(/C=C(\NC(=O)c2ccccc2)C(=O)NCCN2CCOCC2)cc1 | -34.3% |
| Cc1ccc(-n2nnc3c(=O)n(CC(=O)NCc4ccco4)cnc32)cc1 | -20.1% |
| COc1ccc(NC(=O)c2csc3c2CCCCC3)c(OC)c1 | -6.93% |
| CC(=O)c1cccc(S(=O)(=O)N2CCC(C(=O)Nc3cccc(C(=O)NC4CC4)c3)CC2)c1 | -0.194% |

| Structure (SMILES) | hERG current change (%, negative = inhibition) at 10uM |
| --- | --- |
| CN(C)c1ccc(NC(=O)Nc2ccc3c(c2)nnn3C)cc1 | 6.89% |
| CCCn1ncc(CN2CCN(Cc3ccc(C)o3)C(CCO)C2)c1C (stereo not drawn) | -12.9% |
| CC1CCN(C(=O)COc2cccc3c2CCN(C)C3=O)CC1 | 7.93% |
| O=C(CCn1c(=O)oc2ccccc21)N1CCCCCC1 | -3.32% |
| CN(CC(=O)Nc1cccc(F)c1)C(=O)CN1C(=O)C2CC=CCC2C1=O (stereo not drawn) | -23.5% |
| N#CCCn1nc(-c2ccc(Cl)cc2)cc1Nc1ccccc1NC(=O)C(F)(F)F | -15.5% |
| Cc1ncc([N+](=O)[O-])n1Cc1ccc(Cl)cc1 | -12% |
| Cc1ccc(S(=O)(=O)N2CCCCC2)c(C)c1NS(C)(=O)=O | 16.7% |
| COc1ccc(C(C)(C)C)cc1NC(=O)c1cccc(S(=O)(=O)N2CCN(C(C)=O)CC2)c1 | 11.5% |
| Cc1cc(C(=O)N/N=C2\CCCC(=O)C2)c2ccccc2n1 | -7.35% |
| CC(C)(C)NCC(O)CON=C1c2ccccc2-c2ccccc21 (stereo not drawn) | -28.5% |
| CC(=O)Nc1ccc(Nc2ccc([N+](=O)[O-])cn2)cc1 | -14.2% |
| CC(=O)Nc1cccc(/C(C)=N/NC(=O)c2cc(-c3ccncc3)nc3ccccc23)c1 | -6.95% |
| COc1cccc(OC)c1C(=O)Nc1ccc2c(c1)OCCO2 | 9.86% |
| COc1ccc(-n2c(SCC(=O)c3c(N)n(C)c(=O)n(C)c3=O)nc3ccccc32)cc1 | 19.2% |
| O=C1CSC(c2ccccn2)N1c1cccc(Cl)c1 (stereo not drawn) | 8.61% |
| CNS(=O)(=O)c1ccc2nc(NC(=O)/C=C/c3ccco3)sc2c1 | 9.18% |
| CC1(C)CC(=O)c2cc(C(=O)NC3CCSC3=O)c(=O)n(-c3ccc(Cl)cc3)c2C1 (stereo not drawn) | -19.2% |
| O=C(c1ccco1)N1CCN(C(c2ccccc2F)c2nnnn2Cc2cccs2)CC1 (stereo not drawn) | -51% |
| COCCNC(=O)c1cn(C)c2ccccc2c1=O | 16.3% |
| O=C(O)C1CC(=O)N(C2CCCCCC2)C1 (stereo not drawn) | 6.42% |

| Structure (SMILES) | hERG current change (%, negative = inhibition) at 10uM |
| --- | --- |
| CC1(C)CC(=O)C2=C(C1)c1c(ccc3ccccc13)NC2c1cc([N+](=O)[O-])cc([N+](=O)[O-])c1O (stereo not drawn) | 8.9% |
| CCOCCOC(=O)C1=C(C)NC(=O)NC1c1cc2c(cc1Br)OCO2 (stereo not drawn) | -30.5% |
| CCOC(=O)C1(Cc2ccc(OC)cc2)CCN(C(=O)C2CCCO2)CC1 (stereo not drawn) | 1.97% |
| CSc1nc(C)c2cc(C)oc2n1 | 3.34% |
| COc1ccc(C(=O)N/C(=C\c2cccc([N+](=O)[O-])c2)C(=O)Nc2cccc(C(=O)O)c2)cc1 | 5.3% |
| CC(=O)c1cccc(NC(=O)N2CCCC2C(=O)NCc2ccc3c(c2)OCO3)c1 (stereo not drawn) | 3.56% |
| CCCCOc1ccc(C(=O)NCC(=O)OCC(=O)N2CCN(S(=O)(=O)c3ccc(C)cc3C)CC2)cc1 | 8.07% |
| Cc1cc(C(=O)NCCC(c2ccccc2)c2ccccc2)c(C)o1 | -17.5% |
| Nc1nonc1-n1nnc(C(=O)N/N=C/c2ccccc2)c1CSc1ccccc1 | 12.5% |
| Cc1ccn2c(=O)nc(SCC(=O)Nc3ccc4c(c3)OCCO4)nc2c1 | -12.7% |
| O=C(c1cc2c(s1)CCCCC2)N1CCN(c2ncccn2)CC1 | -25.4% |
| CN(C)c1cc(NC(=O)CNC(C)(C)C)c2ccccc2n1.O=C(O)C(=O)O | -24.4% |
| CCOC(=O)N1CCC(N2CCN(S(=O)(=O)c3ccc(NC(C)=O)cc3)CC2)CC1.O=C(O)C(=O)O | -21.8% |
| Cc1ccccc1C(=O)Nc1ccccc1N1CCCCC1 | 8.11% |
| CCCN1C(=O)/C(=C/c2ccc(C)o2)SC1=Nc1ccc(OCC)cc1 | 7.08% |
| CC1Sc2ccc(S(=O)(=O)N3CCC(C(N)=O)CC3)cc2NC1=O (stereo not drawn) | 21.4% |
| Cc1cc(C(=O)Nc2nc3ccc(S(C)(=O)=O)cc3s2)c(C)o1 | 4.2% |
| Cn1c(=O)n(C)c2cc(S(=O)(=O)Nc3ccccc3O)ccc21 | -12.1% |
| O=C(Nc1ccc2c(c1)OCCO2)c1cc(-n2cnnc2)ccc1Cl | -0.885% |
| COc1ccc(C(=O)NCCc2nnc(SCC(=O)Nc3ccccc3)n2C)cc1 | -6.71% |
| C=C(C)C(=O)Nc1cccc(C2=NOC3(C2)C[C@@H](C(N)=O)N(C(=O)C(=C)C)C3)c1 (stereo partly drawn) | 7.14% |

| Structure (SMILES) | hERG current change (%, negative = inhibition) at 10uM |
| --- | --- |
| COCCOC(=O)c1c(C)oc2ccc(OC(=O)COc3c(F)c(F)c(F)c(F)c3F)cc12 | -1.25% |
| Cc1cccc(-c2noc(-c3ccccc3C(=O)NCc3ccco3)n2)c1 | -16.7% |
| Cc1c(C)c2ccc(OC(C)C(=O)NCCN3CCOCC3)c(C)c2oc1=O (stereo not drawn) | 6.07% |
| COc1ccc(OC)c(N(CC(=O)NC2CCCC2)S(=O)(=O)c2ccc(OC)c(OC)c2)c1 | -37.8% |
| O=C(/C=C/c1ccc(S(=O)(=O)N2CCOCC2)cc1)NCc1ccc(Cl)cc1 | -42.2% |
| OCCC1CN(Cc2ccc(F)cc2Cl)CCN1CCc1ccccc1 (stereo not drawn) | -67.4% |
| CCc1cccc2c(C(=O)CN3C(=O)NC4(CCc5ccccc54)C3=O)c[nH]c12 (stereo not drawn) | 10.4% |
| Cc1c(C)c2cc(Cl)c(O)c(CN(C)C)c2oc1=O | 13.7% |
| O=C(/C=C/c1ccccc1)N/C(=C\c1ccco1)C(=O)O | 19.6% |
| O=C(NC1CCCc2ccccc21)C1CCCO1 (stereo not drawn) | 15.7% |
| Clc1ccc(COc2ccccn2)cc1Cl | -6.01% |
| Cc1ccc(C(=O)NCC(=O)OCC(=O)c2ccc3c(c2)NC(=O)CO3)cc1 | -60.6% |
| Cc1ccc2cc(C3CC(c4ccco4)=NN3C(=O)CCCC(=O)O)c(Cl)nc2c1 (stereo not drawn) | -3.32% |
| COc1ccccc1NC(=O)CSc1nccc(-c2ccco2)n1 | 13.4% |
| Cc1sc2nc(C(C)C)nc(SCC(=O)N3CCN(C(=O)c4ccco4)CC3)c2c1C | -72.3% |
| Cn1cc(-c2ccccc2)cc(C#N)c1=O | 22.5% |
| COc1cccc(C(C(=O)NCC2CCCO2)N(C(=O)Cn2nnc3ccccc32)c2ccccc2C(C)=O)c1OC (stereo not drawn) | 4.57% |
| CCOC(=O)C1(CC2CC2)CCN(Cc2cnc(N(C)C)s2)CC1 | -22.1% |
| COC(=O)CN(C(=O)CSc1nnc(-c2cccc(OC)c2)o1)c1ccc(OC)cc1 | 1.15% |
| O=C(Nc1ccc(F)cc1F)C1(c2cccs2)CCOCC1 | 1.56% |
| COc1ccc(/C=C2/C(=O)N(c3ccccc3)N=C2C)cc1 | 16.2% |
